# Some of the results follow. The full chains were built here from the parent and the listed change. Inactive controls read about 0.05.
# B1: TEV protease; numbered along this chain (parent)
# chain: MGESLFKGPRDYNPISSSICHLTNESDGHTTSLYGIGFGPFIITNKHLFRRNNGTLVVQSLHGVFKVKDTTTLQQHLVDGRDMIIIRMPKDFPPFPQKLKFREPQREERICLVTTNFQTKSMSSMVSDTSCTFPSGDGIFWKHWIQTKDGQCGSPLVSTRDGFIVGIHSASNFTNTNNYFTSVPKNFMELLTNQEAQQWVSGWRLNADSVLWGGHKVFMVKPEEPFQPVKEATQL
# Variants of: B1
# Experiment: raw area under fraction-flipped curve 0-4 h after induction (AUC4h, not background-subtracted), DNA-recorder readout of cleavage of the substrate (dimensionless); higher = more cleavage of the substrate by the protease variant
# Details: temperature: 34 °C; time window: 0-4 h after rhamnose induction
# Experimental: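 In vivo DNA recorder in E. coli TOP10(DE3) ΔrhaA at 34 °C. Each TEVp single-site mutant (parent TEVp 0) is paired with a single-site variant of the 7-mer TEVs (canonical ENLYFQ|S). The substrate sits between flexible linkers in a Bxb1-sfGFP-TEVs-SsrA fusion, so cleavage stabilises Bxb1 and speeds flipping of a recombination array, read by NGS. The value is the raw area under the fraction-flipped curve over 0-4 h after rhamnose induction (AUC4h), with ≥20 reads per time point. It is not background-subtracted; inactive controls average about 0.047.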
# 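Note: Bxb1 expression induced with 0.2% (w/v) L-rhamnose at OD600 near 0.5, cultures sampled hourly, flipped fraction per protease–substrate barcode pair counted by paired-end Illumina sequencing.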
Variant,area with substrate ENLYFAS,area with substrate ENLYFCS,area with substrate ENLYFES,area with substrate ENLYFFS,area with substrate ENLYFHS,area with substrate ENLYFIS,area with substrate ENLYFKS,area with substrate ENLYFPS,area with substrate ENLYFTS,area with substrate ENLYFYS,area with substrate ENLYFDS,area with substrate ENLYFGS,area with substrate ENLYFMS,area with substrate ENLYFRS,area with substrate ENLYFSS,area with substrate ENLYFWS,area with substrate ENLYFNS,area with substrate ENLYFVS,area with substrate ENLYFLS
MGESLFKGPRDYNPISSSICHLTNESDGHTTSLYGIGFGPFIITNKHLFRRNNGTLVVQSLHGVFKVKDTTTLQQHLVDGRDMIIIRMPKDFPPFPQKLKFREPQREERICLVTTNFQTKSMSSMVSDTSCTFPSGDGIFWKHWIQTKDGQCGSPLVSTRDGFIVGIHSASNFTNTNNYFTSVPKNFMELLTNQEAQQWVSGWRLNADSVLEGGHKVFMVKPEEPFQPVKEATQL [W212E],0.0505,0.0539,0.0626,0.0711,0.0713,0.0602,0.0833,0.062,0.054,0.0454,,,,,,,,,
MGESLFKGPRDYNPISSSICHLTNESDGHTTSLYGIGFGPFIITNKHLFRRNNGTLVVQSLHGVFKVKDTTTLQQHLVDGRDMIIIRMPKDFPPFPQKLKFREPQREERICLVTTNFQTKSMSSMVSDTSCTFPSGDGIFWKHWIQTKDGQCGSPLVSTRDGFIVGIHSASNFTNTNNYFTSVPKNFMELLTNQEAQQWVSGWRLNADSVLVGGHKVFMVKPEEPFQPVKEATQL [W212V],0.0632,,0.0729,0.0691,,0.0617,0.0732,0.0582,0.067,,0.0657,0.0523,0.0667,0.0673,0.017,0.0672,,,
MGESLFKGPRDYNPISSSICHLTNESDGHTTSLYGIGFGPFIITNKHLFRRNNGTLVVQSLHGVFKVKDTTTLQQHLVDGRDMIIIRMPKDFPPFPQKLKFREPQREERICLVTTNFQTKSMSSMVSDTSCTFPSGDGIFWKHWIQTKDGQCGSPLVSTRDGFIVGIHSASNFTNTNNYFTSVPKNFMELLTNQEAQQWVSGWRLNADSVLWGGHCVFMVKPEEPFQPVKEATQL [K216C],0.056,,,0.0718,,0.0517,0.0566,,0.0709,,0.0547,,,,0.0404,0.0809,,,
MGESLFKGPRDYNPISSSICHLTNESDGHTTSLYGIGFGPFIITNKHLFRRNNGTLVVQSLHGVFKVKDTTTLQQHLVDGRDMIIIRMPKDFPPFPQKLKFREPQREERICLVTTNFQTKSMSSMVSDTSCTFPSGDGIFWKHWIQTKDGQCGSPLVSTRDGFIVGIHSASNFTNTNNYFTSVPKNFMELLTNQEAQQWVSGWRLNADSVLWGGHTVFMVKPEEPFQPVKEATQL [K216T],0.0406,0.0541,0.0656,0.0642,0.0544,0.0566,0.0671,0.0695,0.0603,,0.0622,0.0595,0.0655,,,,0.0651,0.0577,
MGESLFKGPRDYNPISSSICHLTNESDGHTTSLYGIGFGPFIITNKHLFRRNNGTLVVQSLHGVFKVKDTTTLQQHLVDGRDMIIIRMPKDFPPFPQKLKFREPQREERICLVTTNFQTKSMSSMVSDTSCTFPSGDGIFWKHWIQTKDGQCGSPLVSTRDGFIVGIHSASNFTNTNNYFTSVPKNFMELLTNQEAQQWVSGWRLNADSVLWGGHVVFMVKPEEPFQPVKEATQL [K216V],0.0582,0.0657,,0.0606,,,0.086,0.0574,,,,,,,,0.0599,0.0605,0.0289,0.0567
MGESLFKGPRDYNPISSSICHLTNESDGHTTSLYGIGFGPFIITNKHLFRRNNGTLVVQSLHGVFKVKDTTTLQQHLVDGRDMIIIRMPKDFPPFPQKLKFREPQREERICLVTTNFQTKSMSSMVSDTSCTFPSGDGIFWKHWIQTKDGQCGSPLVSTRDGFIVGIHSASNFTNTNNYFTSVPKNFMELLTNQEAQQWVSGWRLNADSYLWGGHKVFMVKPEEPFQPVKEATQL [V210Y],0.0679,0.0569,0.0603,0.0701,0.0827,0.0616,0.0345,0.0496,0.0709,,0.0605,,0.0703,0.0639,0.0433,0.0577,0.0646,,0.0494
MGESLFKGPRDYNPISSSICHLTNESDGHTTSLYGIGFGPFIITNKHLFRRNNGTLVVQSLHGVFKVKDTTTLQQHLVDGRDMIIIRMPKDFPPFPQKLKFREPQREERICLVTTNFQTKSMSSMVSDTSCTFPSGDGIFWKHWIQTKDGQCGSPLVSTRDGFIVGIHSASNFTNTNNYFTSVPKNFMELLTNQEAQQWVSGWRLNADPVLWGGHKVFMVKPEEPFQPVKEATQL [S209P],0.0624,0.0548,0.0597,0.0608,,0.0481,0.0619,0.0485,,0.0534,,0.0236,0.0587,0.0384,,0.0599,0.0516,0.0564,0.0481
MGESLFKGPRDYNPISSSICHLTNESDGHTTSLYGIGFGPFIITNKHLFRRNNGTLVVQSLHGVFKVKDTTTLQQHLVDGRDMIIIRMPKDFPPFPQKLKFREPQREERICLVTTNFQTKSMSSMVSDTSCTFPSGDGIFWKHWIQTKDGQCGSPLVSTRDGFIVGIHSASNFTNTNNYFTSVPKNFMELLTNQEAQQWVSGWRLNADSVLWGGHKVFMVKPEIPFQPVKEATQL [E224I],0.0508,0.072,0.0632,0.0622,0.0578,0.0599,0.057,0.0613,0.0792,0.0607,0.0729,,,,,,0.061,,0.073
MGESLFKGPRDYNPISSSICHLTNESDGHTTSLYGIGFGPFIITNKHLFRRNNGTLVVQSLHGVFKVKDTTTLQQHLVDGRDMIIIRMPKDFPPFPQKLKFREPQREERICLVTTNFQTKSMSSMVSDTSCTFPSGDGIFWKHWIQTKDGQCGSPLVSTRDGFIVGIHSASNFTNTNNYFTSVPKNFMELLTNQEAQQWVSGWRLNADSVLWGGHKVFMVKPELPFQPVKEATQL [E224L],0.0461,0.0639,0.0667,0.0629,,0.058,,0.0529,0.0539,0.0836,,,0.0322,0.0738,0.0598,0.0588,0.0671,0.0605,0.0578
MGESLFKGPRDYNPISSSICHLTNESDGHTTSLYGIGFGPFIITNKHLFRRNNGTLVVQSLHGVFKVKDTTTLQQHLVDGRDMIIIRMPKDFPPFPQKLKFREPQREERICLVTTNFQTKSMSSMVSDTSCTFPSGDGIFWKHWIQTKDGQCGSPLVSTRDGFIVGIHSASNFTNTNNYFTSVPKNFMELLTNQEAQQWVSGWRLNADSVLWGGHKVFMVKPEQPFQPVKEATQL [E224Q],0.0465,0.0596,0.073,,,0.0568,0.0563,0.0637,0.0647,,,0.051,0.0553,0.014,0.0632,,0.0551,0.0566,0.0635
